± gives the standard deviation of the averaged measurements. Growth of baker's yeast expressing single-residue variants of Pneumocystis jirovecii dihydrofolate reductase in 8.8 or 44 µM methotrexate (about 75% and 90% inhibition of the wild type). Selection coefficient per generation; 0 = like wild type, above 0 = less sensitive, below 0 = more sensitive or loss of function. No active / inactive call per row; the paper calls resistant above 0.220 (8.8 µM) or 0.243 (44 µM) together with a significance test. At 44 µM about 15% of codons end with one read or none, so the lowest values are floors (replicate rank correlation 0.74; 0.94 at 8.8 µM).
B1: UniProt A0EPZ9; numbered along this chain (parent)
chain: MDWQKSLTLIVALTLSRGIGLKNDLPWKLKSDMMFFSRVTSGLLVTRSTGQMNVVLMGRKTWESLPAHSRPLKNRINVVISRQEVLDLGGGAYHARSLDDALALLSQIYDSTSKIQLNRVFVIGGGELCKAAMEHSRLNRIIATVIHNEVDCDVFFPIDFRSSQSCLPWRKQDHSVLEAWVGSKVPQGKINENGFIYEFEMWIRDI

Variants of: B1
Assay: selection coefficient against synonymous wild-type codons (log2 per generation); higher = faster growth than wild type
Conditions: with Saccharomyces cerevisiae carrying the variant on a plasmid
Protocol: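 Pooled growth of yeast carrying single-residue variants of P. jirovecii dihydrofolate reductase (own DFR1 gene intact), two passages at 30 °C, three cultures, sequenced before and after. Codons with under 15 starting reads are left out; codons of one change are averaged.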

Row | Variant | selection coefficient against synonymous wild-type codons (log2) (methotrexate 8.8 µM) | selection coefficient against synonymous wild-type codons (log2) (methotrexate 44 µM)
1 | V145L | -0.221 ± 0.053 | -0.191 ± 0.14
2 | V145M | -0.141 ± 0.019 | -0.13 ± 0.091
3 | V145N | 0.0681 ± 0.041 | 0.0901 ± 0.19
4 | V145P | -0.099 ± 0.04 | 0.00469 ± 0.037
5 | V145Q | -0.0249 ± 0.12 | -0.171 ± 0.13
6 | V145R | 0.294 ± 0.041 | 0.382 ± 0.041
7 | V145S | -0.009 ± 0.039 | 0.00539 ± 0.12
8 | V145T | 0.037 ± 0.043 | 0.0896 ± 0.072
9 | V145W | -0.23 ± 0.013 | -0.222 ± 0.12
10 | V145Y | 0.0212 ± 0.04 | 0.0723 ± 0.09
11 | I146A | 0.42 ± 0.038 | 0.487 ± 0.033
12 | I146C | 0.237 ± 0.06 | 0.203 ± 0.022
13 | I146D | -0.511 ± 0.096 | -0.351 ± 0.025
14 | I146E | 0.0139 ± 0.084 | 0.285 ± 0.097
15 | I146F | 0.357 ± 0.016 | 0.427 ± 0.011
16 | I146G | 0.265 ± 0.057 | 0.372 ± 0.042
17 | I146H | 0.402 ± 0.064 | 0.693 ± 0.057
18 | I146K | -0.337 ± 0.06 | -0.168 ± 0.082
19 | I146L | 0.0458 ± 0.08 | -0.0139 ± 0.13
20 | I146M | 0.219 ± 0.042 | 0.188 ± 0.051

Row | Variant | selection coefficient against synonymous wild-type codons (log2) (methotrexate 8.8 µM) | selection coefficient against synonymous wild-type codons (log2) (methotrexate 44 µM)
21 | I146N | 0.532 ± 0.1 | 0.702 ± 0.084
22 | I146P | -0.485 ± 0.086 | -0.262 ± 0.097
23 | I146Q | 0.585 ± 0.065 | 0.823 ± 0.059
24 | I146R | -0.634 ± 0.15 | -0.305 ± 0.11
25 | I146S | 0.352 ± 0.055 | 0.471 ± 0.053
26 | I146T | 0.364 ± 0.052 | 0.437 ± 0.092
27 | I146V | 0.0651 ± 0.039 | 0.0348 ± 0.073
28 | I146W | -0.477 ± 0.077 | -0.378 ± 0.16
29 | I146Y | 0.106 ± 0.052 | 0.373 ± 0.034
30 | H147A | -0.183 ± 0.064 | -0.156 ± 0.18
31 | H147C | -0.111 ± 0.028 | -0.225 ± 0.021
32 | H147D | -0.0272 ± 0.048 | -0.136 ± 0.13
33 | H147E | -0.0512 ± 0.062 | -0.175 ± 0.047
34 | H147F | -0.267 ± 0.12 | -0.341 ± 0.091
35 | H147G | -0.0491 ± 0.055 | -0.219 ± 0.23
36 | H147I | -0.252 ± 0.055 | -0.307 ± 0.022
37 | H147K | 0.0134 ± 0.084 | -0.128 ± 0.11
38 | H147L | -0.206 ± 0.17 | -0.173 ± 0.29
39 | H147M | -0.215 ± 0.1 | -0.265 ± 0.17
40 | H147N | -0.0764 ± 0.016 | -0.0771 ± 0.12

Row | Variant | selection coefficient against synonymous wild-type codons (log2) (methotrexate 8.8 µM) | selection coefficient against synonymous wild-type codons (log2) (methotrexate 44 µM)
41 | H147P | 0.192 ± 0.042 | 0.161 ± 0.11
42 | H147Q | -0.0512 ± 0.062 | -0.119 ± 0.11
43 | H147R | -0.0265 ± 0.04 | -0.17 ± 0.13
44 | H147S | -0.0106 ± 0.046 | -0.0612 ± 0.11
45 | H147T | -0.00831 ± 0.067 | -0.187 ± 0.15
46 | H147V | -0.215 ± 0.052 | -0.369 ± 0.11
47 | H147W | -0.196 ± 0.1 | -0.344 ± 0.081
48 | H147Y | -0.225 ± 0.2 | -0.214 ± 0.15
49 | N148A | -0.0988 ± 0.049 | -0.212 ± 0.14
50 | N148C | -0.146 ± 0.049 | -0.159 ± 0.092
51 | N148D | 0.137 ± 0.043 | 0.06 ± 0.047
52 | N148E | 0.108 ± 0.057 | 0.106 ± 0.038
53 | N148F | -0.235 ± 0.082 | -0.255 ± 0.053
54 | N148G | 0.0231 ± 0.048 | 0.067 ± 0.092
55 | N148H | -0.191 ± 0.072 | -0.295 ± 0.1
56 | N148I | -0.467 ± 0.23 | -0.219 ± 0.018
57 | N148K | -0.0548 ± 0.083 | -0.0841 ± 0.072
58 | N148L | -0.209 ± 0.086 | -0.281 ± 0.11
